According to PubChem BioAssay (NCATS):
Where “and” joins values, the source holds several entries; their conditions need not be identical. Equal entries are not always repeated. The shares of active, inactive and inconclusive entries below differ from those in the screen. Where the call is inconclusive, the potency comes from a doubtful curve fit. Calls of active or inactive are those of the source. Calls follow the shape of the dose curve; as a rule, active = well fitted cell-killing curve with a large enough effect; inconclusive = small, poorly fitted or top-dose-only effect; inactive = no such curve, though single readings can be large or run the other way.
% is scaled to controls: 0 for no effect and ±100 for the full control effect; potency is read from the fitted curve at half-maximal effect; tags tell the direction and shape of the fitted curve.

Test: qHTS of pediatric cancer cell lines to identify multiple opportunities for drug repurposing: Primary screen for A673 cells (AID 1347092); also: nearly all actives have a fitted effect of over 45% in size
Settings: A673 Ewing sarcoma viability, CellTiter-Glo ATP luminescence, 48 h; activity change, negative = cytotoxic: at 46 µM (top of the series) unless noted
Description: Drug repurposing or repositioning has been offered as a strategy for drug development in oncology programs. This approach has special potential for childhood cancers and other rare or orphan diseases, where the expected return on new drug development has been a disincentive to pharmaceuticals. […] In this project we exploit the poly-pharmacology of drugs to discover new indications via phenotypic screening of a panel of 19 well-characterized cell lines derived from solid tumors seen in children and adolescents. The goal is to identify approved drugs with previously unrecognized anticancer properties that has the potential to reveal new mechanisms and biological processes involved in carcinogenesis or drug resistance. We employed a titration-based paradigm (quantitative high-throughput screening or qHTS), where all compounds were tested at multiple concentrations for their effect on cell viability. Concentration-response curves (CRCs) were derived directly from the primary screen, and both potency and efficacy values were used to identify compounds with robust bioactivity profiles. We screened the NIH Chemical Genomics Center (NCGC) Pharmaceutical Collection (NPC) and Mechanism Interrogation Plate (MIPE) small molecule collections of approved and investigational compounds against these cell lines; and measured metabolically active cells after 48 hours of compound treatment as a proxy for cell viability. […] Assay Submitter: Nathalia J. Martinez, National Center for Advancing Translational Sciences, National Institutes of Health, Rockville, MD, USA; email: natalia.martinez@nih.gov. Shen, M et al. Quantitative high-throughput phenotypic screening of pediatric cancer cell lines identifies multiple opportunities for drug repurposing. Oncotarget 2017 Dec 19;9(4):4758-4772. PMID 29435139.
The cells were obtained from University of North Carolina (UNC), Pediatric Preclinical Testing Program (PPT), and Coriell Institute (CI). qHTS cell viability assay: Cells were assayed in growth media at a density of 500-1,000 cells/well. Five microliters of cells were dispensed into 1,536-well, white, solid-bottom, TC-treated plates (Greiner Bio One) using a multidrop dispenser and incubated at 37 degrees C, 5% CO2, under a humidified atmosphere for 5 hours. Twenty-three nanoliters of compounds and controls (neutral control DMSO or positive control bortezomib at final concentration of 2.3 uM) were subsequently transferred by Kalypsys pintool. For primary screens, the MIPE collection was tested at 11-point dilutions (final concentrations range from 0.78 nM to 46 µM) and the NPC collection at 8-point dilutions (final concentrations range from 0.59 nM to 46 µM). Compounds tested in follow-up screens were assayed at 11-point dilutions. Cells were incubated for 48 hours, followed by addition of 3 uL of CellTiter-Glo (Promega). After a 15min incubation at room temperature, samples were analyzed for luminescence intensity using a ViewLux High-throughput CCD imager equipped with clear filters.
For `C[C@@H]1CN(Cc2ccc(F)cc2)[C@@H](C)CN1C(=O)c1cc2c(C(=O)C(=O)N(C)C)cn(C)c2cc1Cl`, the Potency was active: 14.8 µM. In the case of `CCCCCCCCOc1ccccc1C(=O)Nc1ccc(C(=O)OCC[N+](C)(CC)CC)cc1`, the Potency is reported as inconclusive: 18.7 µM [cytotoxic, partial curve] and inconclusive: 33.5 µM [cytotoxic, single point]. For `CC(C=CC1=C(C)CCCC1(C)C)=CC=CC(C)=CC(=O)O`, the Potency was active: 14.8 µM and active: 296 nM. For `Cc1nc2ccccc2n1Cc1ccc(Cl)cc1`, the Potency was inconclusive: 10.6 µM [cytotoxic, partial curve]. In the case of `Nc1nc2ccc(OC(F)(F)F)cc2s1`, the Potency is reported as inconclusive: 18.7 µM [cytotoxic, partial curve, poor fit] and inconclusive: 21.1 µM [cytotoxic, single point]. With `C[C@H](NC(=O)C(=O)Nc1ccccc1C(C)(C)C)C(=O)N[C@@H](CC(=O)O)C(=O)COc1c(F)c(F)cc(F)c1F` the Potency was active: 23.5 µM. In the case of `COc1cc(Oc2ccnc3cc(OC)c(OC)cc23)ccc1NC(=O)NC(C)c1nccs1` (stereo not given), the Potency is reported as inconclusive: 29.6 µM [cytotoxic, single point]. With `NS(=O)(=O)c1cc(C(=O)O)c(NCc2ccco2)cc1Cl` the Potency was “inactive”. For `O=C1NC(=O)C(=Cc2ccc3nccnc3c2)S1`, the Potency was inconclusive: 6.45 µM [cytotoxic, partial curve]. In the case of `O=c1[nH]cc(F)c(=O)[nH]1`, the Potency is reported as inconclusive: 6.68 µM [cytotoxic, partial curve, poor fit] and inconclusive: 3.72 µM [cytotoxic, full curve]. With `COCCCN1CCC(NC(=O)c2cc(Cl)c(N)c3c2OCC3)CC1` the Potency was inconclusive: 29.6 µM [cytotoxic, single point]. With `O=C(NNC(=O)c1ccc(CNS(=O)(=O)c2ccc(F)c(Cl)c2)cc1)c1ccccc1` the “activity change, negative = cytotoxic” value was inactive: -1.58%. In the case of `Oc1ccc(O)cc1`, the Potency is reported as inconclusive: 21.1 µM [cytotoxic, single point]. In the case of `Oc1ccc(C2=Cc3ccc(O)cc3OC2)cc1`, the Potency is reported as active: 2.35 µM. With `CCOC(=O)N1CCC(n2c(=O)[nH]c3cc(Cl)ccc32)CC1` the Potency was inconclusive: 16.8 µM [cytotoxic, single point]. With `COC(=O)C1=C(C)NC(C)=C(C(=O)OCCN2CCN(C(c3ccccc3)c3ccccc3)CC2)C1c1cccc([N+](=O)[O-])c1` (stereo not given) the Potency was inconclusive: 33.5 µM [cytotoxic, single point]. With `CO[C@H]1C=CC=C(C)C(=O)NC2=CC(=O)C(NCCN(C)C)=C(C[C@@H](C)C[C@H](OC)[C@@H](O)[C@@H](C)C=C(C)[C@@H]1OC(N)=O)C2=O` the Potency was active: 0.0743 µM. For `O=Cc1ccc(O)c(O)c1O`, the Potency was inconclusive: 26.6 µM [cytotoxic, single point]. For `C=CC(=O)Nc1cc2c(Nc3ccc(F)c(Cl)c3)ncnc2cc1C#CC(C)(C)N1CCN(C)CC1`, the Potency was active: 1.48 µM. With `CCCSc1ccc2nc(NC(=O)OC)[nH]c2c1` the Potency was active: 0.841 µM. For `O=C(O)c1cc(O)c(O)c(O)c1`, the Potency was inconclusive: 33.5 µM [cytotoxic, single point]. With `CC(C)NCC(O)c1ccc(O)c(O)c1` (stereo not given) the Potency was inconclusive: 33.5 µM [cytotoxic, single point]. In the case of `CN(C)c1ccc(N=NS(=O)(=O)O)cc1`, the Potency is reported as inconclusive: 57.4 µM [cytotoxic, single point]. For `C=C(c1ccc(C(=O)O)cc1)c1cc2c(cc1C)C(C)(C)CCC2(C)C`, the Potency was inconclusive: 21.1 µM [cytotoxic, single point]. For `COc1ccc2c3c1OC1C[C@@H](O)C=C[C@@]31CCN(C)C2` (stereo not given in full), the Potency was inconclusive: 37.2 µM [cytotoxic, single point]. In the case of `CCOC1OC(=O)C[C@H]1NC(=O)[C@@H]1CCCN1C(=O)[C@@H](NC(=O)c1ccc(N)c(Cl)c1)C(C)(C)C` (stereo not given in full), the Potency is reported as active: 0.118 µM. For `O=C(Nc1ccc(F)c(C(F)(F)F)c1)Nc1nnc(-c2ccncc2)s1`, the Potency was inconclusive: 11.8 µM [cytotoxic, partial curve]. For `CS(=O)(=O)N(Cc1ccco1)CC(O)Cn1c2ccccc2c2ccccc21` (stereo not given), the Potency was inconclusive: 18.7 µM [cytotoxic, partial curve]. With `CCCCCCCC/C=C/C(=O)O` the activity change, negative = cytotoxic was inconclusive: -55.8%. In the case of `CCCCCCCC(=O)[O-].CCCCCCCC(=O)[O-].[Zn+2]`, the “activity change, negative = cytotoxic” value is reported as inactive: -0.472%. In the case of `Oc1ccc(/C=C/c2cc(O)cc(O)c2)cc1`, the Potency is reported as inconclusive: 33.5 µM [cytotoxic, single point]. For `Nc1ccc(-c2ccc3ncc4ccc(=O)n(-c5cccc(C(F)(F)F)c5)c4c3c2)cn1`, the Potency was active: 0.003 µM. In the case of `COc1ccc(-c2coc3cc(O)cc(O)c3c2=O)cc1`, the Potency is reported as inconclusive: 23.5 µM [cytotoxic, partial curve]. With `COC(=O)C1=C(C)NC(C)=C(C(=O)OCC(C)C)C1c1ccccc1[N+](=O)[O-]` (stereo not given) the Potency was inconclusive: 33.5 µM [cytotoxic, single point]. In the case of `OC[C@H]1O[C@@H](n2cnc3c2NC=NC[C@@H]3O)C[C@H]1O`, the Potency is reported as inconclusive: 23.5 µM [cytotoxic, single point]. In the case of `N[C@H](CSC(c1ccccc1)(c1ccccc1)c1ccccc1)C(=O)O`, the Potency is reported as active: 9.35 µM. In the case of `O=C(Nc1ccccc1-c1cn2c(CN3CCNCC3)csc2n1)c1cnc2ccccc2n1`, the Potency is reported as active: 18.7 µM. With `COc1ccc(-c2oc3cc(OC)ccc3c2C(=O)c2ccc(C#N)cc2)cc1` the Potency was active: 0.0935 µM. With `C=C[C@H]1CN2CC[C@H]1C[C@H]2[C@H](O)c1ccnc2ccc(OC)cc12` the “activity change, negative = cytotoxic” value was inactive: -14.6%. In the case of `O=C1Cc2cc(CCN3CCN(c4nsc5ccccc45)CC3)c(Cl)cc2N1`, the Potency is reported as inconclusive: 26.6 µM [cytotoxic, single point] and inconclusive: 29.6 µM [cytotoxic, single point].
